AlphaScreen luminescence signal data for 12 molecules are collected here from the supplement of paper PMC12423691.

First the molecules themselves.
B1: POU5F2, Q8N7G0 (protein)
chain: MAGHRPSNHFCPLPGSGGGGPRGPMPLRVDTLTWLSTQAAPGRVMVWPAVRPGICPGPDVWRIPLGPLPHEFRGWIAPCRPRLGASEAGDWLRRPSEGALPGPYIALRSIPKLPPPEDISGILKELQQLAKELRQKRLSLGYSQADVGIAVGALFGKVLSQTTICRFEAQQLSVANMWKLRPLLKKWLKEVEAENLLGLCKMEMILQQSGKWRRASRERRIGNSLEKFFQRCPKPTPQQISHIAGCLQLQKDVVRVWFYNRSKMGSRPTNDASPREIVGTAGPPCPGAPVCFHLGLGLPVDIPHYTRLYSAGVAHSSAPATTLGLLRF
B2: EIF2AK2, P19525 (protein)
chain: MAGDLSAGFFMEELNTYRQKQGVVLKYQELPNSGPPHDRRFTFQVIIDGREFPEGEGRSKKEAKNAAAKLAVEILNKEKKAVSPLLLTTTNSSEGLSMGNYIGLINRIAQKKRLTVNYEQCASGVHGPEGFHYKCKMGQKEYSIGTGSTKQEAKQLAAKLAYLQILSEETSVKSDYLSSGSFATTCESQSNSLVTSTLASESSSEGDFSADTSEINSNSDSLNSSSLLMNGLRNNQRKAKRSLAPRFDLPDMKETKYTVDKRFGMDFKEIELIGSGGFGQVFKAKHRIDGKTYVIKRVKYNNEKAEREVKALAKLDHVNIVHYNGCWDGFDYDPETSDDSLESSDYDPENSKNSSRSKTKCLFIQMEFCDKGTLEQWIEKRRGEKLDKVLALELFEQITKGVDYIHSKKLIHRDLKPSNIFLVDTKQVKIGDFGLVTSLKNDGKRTRSKGTLRYMSPEQISSQDYGKEVDLYALGLILAELLHVCDTAFETSKFFTDLRDGIISDIFDKKEKTLLQKLLSKKPEDRPNTSEILRTLTVWKKSPEKNERHTC
B3: TBPL2, Q6SJ96 (protein)
chain: MEQEETYLELYLDQCAAQDGLAPPRSPLFSPVVPYDMYILNASNPDTAFNSNPEVKETSGDFSSVDLSFLPDEVTQENKDQPVISKHETEENSESQSPQSRLPSPSEQDVGLGLNSSSLSNSHSQLHPGDTDSVQPSPEKPNSDSLSLASITPMTPMTPISECCGIVPQLQNIVSTVNLACKLDLKKIALHAKNAEYNPKRFAAVIMRIREPRTTALIFSSGKMVCTGAKSEEQSRLAARKYARVVQKLGFPARFLDFKIQNMVGSCDVRFPIRLEGLVLTHQQFSSYEPELFPGLIYRMVKPRIVLLIFVSGKVVLTGAKERSEIYEAFENIYPILKGFKKA
B4: GTF2A2, P52657 (protein)
chain: MAYQLYRNTTLGNSLQESLDELIQSQQITPQLALQVLLQFDKAINAALAQRVRNRVNFRGSLNTYRFCDNVWTFVLNDVEFREVTELIKVDKVKIVACDGKNTGSNTTE
B5: ZNF639, Q9UID6 (protein)
chain: MNEYPKKRKRKTLHPSRYSDSSGISRIADGFNGIFSDHCYSVCSMRQPDLKYFDNKDDDSDTETSNDLPKFADGIKARNRNQNYLVPSPVLRILDHTAFSTEKSADIVICDEECDSPESVNQQTQEESPIEVHTAEDVPIAVEVHAISEDYDIETENNSSESLQDQTDEEPPAKLCKILDKSQALNVTAQQKWPLLRANSSGLYKCELCEFNSKYFSDLKQHMILKHKRTDSNVCRVCKESFSTNMLLIEHAKLHEEDPYICKYCDYKTVIFENLSQHIADTHFSDHLYWCEQCDVQFSSSSELYLHFQEHSCDEQYLCQFCEHETNDPEDLHSHVVNEHACKLIELSDKYNNGEHGQYSLLSKITFDKCKNFFVCQVCGFRSRLHTNVNRHVAIEHTKIFPHVCDDCGKGFSSMLEYCKHLNSHLSEGIYLCQYCEYSTGQIEDLKIHLDFKHSADLPHKCSDCLMRFGNERELISHLPVHETT
B6: ZNF821, O75541 (protein)
chain: MSRRKQTNPNKVHWDQVFAGLEEQARQAMMKTDFPGDLGSQRQAIQQLRDQDSSSSDSEGDEEETTQDEVSSHTSEEDGGVVKVEKELENTEQPVGGNEVVEHEVTGNLNSDPLLELCQCPLCQLDCGSREQLIAHVYQHTAAVVSAKSYMCPVCGRALSSPGSLGRHLLIHSEDQRSNCAVCGARFTSHATFNSEKLPEVLNMESLPTVHNEGPSSAEGKDIAFSPPVYPAGILLVCNNCAAYRKLLEAQTPSVRKWALRRQNEPLEVRLQRLERERTAKKSRRDNETPEEREVRRMRDREAKRLQRMQETDEQRARRLQRDREAMRLKRANETPEKRQARLIREREAKRLKRRLEKMDMMLRAQFGQDPSAMAALAAEMNFFQLPVSGVELDSQLLGKMAFEEQNSSSLH
B7: SMAD2, Q15796 (protein)
chain: MSSILPFTPPVVKRLLGWKKSAGGSGGAGGGEQNGQEEKWCEKAVKSLVKKLKKTGRLDELEKAITTQNCNTKCVTIPSTCSEIWGLSTPNTIDQWDTTGLYSFSEQTRSLDGRLQVSHRKGLPHVIYCRLWRWPDLHSHHELKAIENCEYAFNLKKDEVCVNPYHYQRVETPVLPPVLVPRHTEILTELPPLDDYTHSIPENTNFPAGIEPQSNYIPETPPPGYISEDGETSDQQLNQSMDTGSPAELSPTTLSPVNHSLDLQPVTYSEPAFWCSIAYYELNQRVGETFHASQPSLTVDGFTDPSNSERFCLGLLSNVNRNATVEMTRRHIGRGVRLYYIGGEVFAECLSDSAIFVQSPNCNQRYGWHPATVCKIPPGCNLKIFNNQEFAALLAQSVNQGFEAVYQLTRMCTIRMSFVKGWGAEYRRQTVTSTPCWIELHLNGPLQWLDKVLTQMGSPSVRCSSMS
B8: GLIS1, Q8NBF1 (protein)
chain: MAEARTSLSAHCRGPLATGLHPDLDLPGRSLATPAPSCYLLGSEPSSGLGLQPETHLPEGSLKRCCVLGLPPTSPASSSPCASSDVTSIIRSSQTSLVTCVNGLRSPPLTGDLGGPSKRARPGPASTDSHEGSLQLEACRKASFLKQEPADEFSELFGPHQQGLPPPYPLSQLPPGPSLGGLGLGLAGRVVAGRQACRWVDCCAAYEQQEELVRHIEKSHIDQRKGEDFTCFWAGCVRRYKPFNARYKLLIHMRVHSGEKPNKCMFEGCSKAFSRLENLKIHLRSHTGEKPYLCQHPGCQKAFSNSSDRAKHQRTHLDTKPYACQIPGCSKRYTDPSSLRKHVKAHSAKEQQVRKKLHAGPDTEADVLTECLVLQQLHTSTQLAASDGKGGCGLGQELLPGVYPGSITPHNGLASGLLPPAHDVPSRHHPLDATTSSHHHLSPLPMAESTRDGLGPGLLSPIVSPLKGLGPPPLPPSSQSHSPGGQPFPTLPSKPSYPPFQSPPPPPLPSPQGYQGSFHSIQSCFPYGDCYRMAEPAAGGDGLVGETHGFNPLRPNGYHSLSTPLPATGYEALAEASCPTALPQQPSEDVVSSGPEDCGFFPNGAFDHCLGHIPSIYTDT
B9: NKX2-5, P52952 (protein)
chain: MFPSPALTPTPFSVKDILNLEQQQRSLAAAGELSARLEATLAPSSCMLAAFKPEAYAGPEAAAPGLPELRAELGRAPSPAKCASAFPAAPAFYPRAYSDPDPAKDPRAEKKELCALQKAVELEKTEADNAERPRARRRRKPRVLFSQAQVYELERRFKQQRYLSAPERDQLASVLKLTSTQVKIWFQNRRYKCKRQRQDQTLELVGLPPPPPPPARRIAVPVLVRDGKPCLGDSAPYAPAYGVGLNPYGYNAYPAYPGYGGAACSPGYSCTAAYPAGPSPAQPATAAANNNFVNFGVGDLNAVQSPGIPQSNSGVSTLHGIRAW
B10: ATF1, P18846 (protein)
chain: MEDSHKSTTSETAPQPGSAVQGAHISHIAQQVSSLSESEESQDSSDSIGSSQKAHGILARRPSYRKILKDLSSEDTRGRKGDGENSGVSAAVTSMSVPTPIYQTSSGQYIAIAPNGALQLASPGTDGVQGLQTLTMTNSGSTQQGTTILQYAQTSDGQQILVPSNQVVVQTASGDMQTYQIRTTPSATSLPQTVVMTSPVTLTSQTTKTDDPQLKREIRLMKNREAARECRRKKKEYVKCLENRVAVLENQNKTLIEELKTLKDLYSNKSV
B11: PHB, P35232 (protein)
chain: MAAKVFESIGKFGLALAVAGGVVNSALYNVDAGHRAVIFDRFRGVQDIVVGEGTHFLIPWVQKPIIFDCRSRPRNVPVITGSKDLQNVNITLRILFRPVASQLPRIFTSIGEDYDERVLPSITTEILKSVVARFDAGELITQRELVSRQVSDDLTERAATFGLILDDVSLTHLTFGKEFTEAVEAKQVAQQEAERARFVVEKAEQQKKAAIISAEGDSKAAELIANSLATAGDGLIELRKLEAAEDIAYQLSRSRNITYLPAGQSVLLQLPQ
B12: HSF2, Q03933 (protein)
chain: MKQSSNVPAFLSKLWTLVEETHTNEFITWSQNGQSFLVLDEQRFAKEILPKYFKHNNMASFVRQLNMYGFRKVVHIDSGIVKQERDGPVEFQHPYFKQGQDDLLENIKRKVSSSKPEENKIRQEDLTKIISSAQKVQIKQETIESRLSELKSENESLWKEVSELRAKHAQQQQVIRKIVQFIVTLVQNNQLVSLKRKRPLLLNTNGAQKKNLFQHIVKEPTDNHHHKVPHSRTEGLKPRERISDDIIIYDVTDDNADEENIPVIPETNEDVISDPSNCSQYPDIVIVEDDNEDEYAPVIQSGEQNEPARESLSSGSDGSSPLMSSAVQLNGSSSLTSEDPVTMMDSILNDNINLLGKVELLDYLDSIDCSLEDFQAMLSGRQFSIDPDLLVDLFTSSVQMNPTDYINNTKSENKGLETTKNNVVQPVSEEGRKSKSKPDKQLIQYTAFPLLAFLDGNPASSVEQASTTASSEVLSSVDKPIEVDELLDSSLDPEPTQSKLVRLEPLTEAEASEATLFYLCELAPAPLDSDMPLLDS

The other results are listed elsewhere or left out. Binding of human transcription factors and regulators to the viral nucleoprotein by AlphaScreen, crude cell-free proteins, amounts not normalised, one pass. Fold of the Venus control; higher = more signal. No active / inactive call. Single-pass screen; sequences are the whole Swiss-Prot entries looked up by name.

The experiment concerns the target nucleoprotein N of Crimean-Congo hemorrhagic fever virus. Description: AlphaScreen luminescence signal relative to Venus negative control (fold); higher = stronger binding to CCHFV N. Here is the method:
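AlphaScreen binding of cell-free made, FLAG-GST-tagged human transcription factors and regulators (crude translation products) to biotinylated N protein; signal as fold of the FLAG-GST-Venus control. One pass.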
(Alpha assays give light when donor and acceptor beads are brought close together.)
In turn, B1 had an AlphaScreen luminescence signal of 1.95.

Turning to B2, the AlphaScreen luminescence signal was 1.16.

On to B3, for which the AlphaScreen luminescence signal was 1.81.

With B4, the AlphaScreen luminescence signal came to 1.4.

B5 registered an AlphaScreen luminescence signal of 2.28.

In the case of B6, the AlphaScreen luminescence signal was found to be 1.12.

For the molecule B7, the AlphaScreen luminescence signal is 1.72.

As for B8, the AlphaScreen luminescence signal stood at 2.51.

As to B9, the AlphaScreen luminescence signal came out at 2.79.

Regarding B10, the AlphaScreen luminescence signal was found to be 1.67.

As for B11, the AlphaScreen luminescence signal stood at 2.79.

B12: the AlphaScreen luminescence signal was determined as 1.95.
